According to PubChem BioAssay AID504374 (National Center for Advancing Translational Sciences (NCATS), 2011):
In all, about 1,500 compounds went through this assay and about 100 (6.7%) were called active. Another 7% or so got no clear call; they are omitted. Calls come from the whole dose curve; as a rule, active = well fitted inhibition curve with a large enough effect; inconclusive = small, poorly fitted or top-dose-only effect, or effect the other way; inactive = flat fitted curve, though single readings scatter. The list shows a part of the results.

Biological target: Runt-related transcription factor 1 (Homo sapiens) + Core-binding factor subunit beta (Homo sapiens) (UniProt Q01196+Q13951)
UniProt Q01196, sequence (Q01196 whole entry, looked up): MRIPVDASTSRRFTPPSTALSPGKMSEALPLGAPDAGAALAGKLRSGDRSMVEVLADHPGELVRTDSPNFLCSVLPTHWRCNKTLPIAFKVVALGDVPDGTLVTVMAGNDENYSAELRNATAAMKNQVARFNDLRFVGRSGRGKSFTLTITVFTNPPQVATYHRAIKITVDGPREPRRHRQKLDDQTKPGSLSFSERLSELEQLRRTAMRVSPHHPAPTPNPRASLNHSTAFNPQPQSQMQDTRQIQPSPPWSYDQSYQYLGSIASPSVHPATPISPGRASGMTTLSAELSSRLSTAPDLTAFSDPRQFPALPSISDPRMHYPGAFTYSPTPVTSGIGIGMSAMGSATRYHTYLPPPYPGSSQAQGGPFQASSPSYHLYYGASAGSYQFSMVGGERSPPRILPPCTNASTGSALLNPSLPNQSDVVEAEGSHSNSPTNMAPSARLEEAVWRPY
UniProt Q01196, sequence (Q13951 whole entry, looked up): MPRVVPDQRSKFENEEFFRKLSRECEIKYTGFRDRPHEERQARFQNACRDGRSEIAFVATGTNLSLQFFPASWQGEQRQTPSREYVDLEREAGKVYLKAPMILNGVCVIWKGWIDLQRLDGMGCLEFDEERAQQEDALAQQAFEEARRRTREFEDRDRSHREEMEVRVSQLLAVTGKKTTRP
Experiment: qHTS Assay for Compounds Blocking the Interaction Between CBF-beta and RUNX1 for the Treatment of Acute Myeloid Leukemia: Hit Validation; note: nearly all actives have a fitted effect of over 60% in size
Settings: AlphaScreen CBFb-His/RUNX1-biotin binding; series mostly up to 59.8 µM; activity, negative = inhibition: at the top concentration
Procedure, shortened: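 Compounds were added to a premixed CBF-beta-His/RUNX1-biotin complex (30 nM each, 20 min) for 15 min. Nickel and streptavidin AlphaScreen beads followed for 90 min at room temperature, with emission at 440 nm […].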
% is set by controls: 0 for no effect and ±100 for the full control effect; potency is the fitted concentration of half-maximal effect.

Compound | activity, negative = inhibition | Potency
CN(C)c1cc(-c2ccc(F)cc2)oc(=O)c1Cl | inactive: 0.27% | 
Cc1nn2c(NCCOCCO)c3c(nc2c1-c1ccccc1)CCC3 | inactive: -12.7% | 
CSc1cccc(NC(=O)Nc2ccccc2C(N)=O)c1 | inactive: 5.85% | 
COc1cc(OC)c(C2C(C#N)=C(C)NC(C)=C2C#N)c(C(=O)O)c1 | inactive: -1.53% | 
c1csc(-c2nc3ccccc3s2)c1 | inactive: 1.21% | 
Cc1onc(-c2c(Cl)cccc2Cl)c1C(=O)Nc1nc(C(C)(C)C)cs1 | inactive: -1.93% | 
COC(=O)c1[nH]c(C)c(/C(O)=C2\C(=O)C(=O)N(CCN3CCOCC3)C2c2ccc(C)o2)c1C (stereo unspecified) | inactive: 2.91% | 
O=C(O)c1cc(O)c2c(c1)[C@H]([C@H]1c3cc(C(=O)O)cc(O)c3C(=O)c3c(O[C@@H]4OC(CO)C(O)C(O)C4O)cccc31)c1cccc(O[C@@H]3OC(CO)C(O)C(O)C3O)c1C2=O (stereo partly specified) |  | active: 0.562 µM
O=C(/C=C/c1cn(CC(O)CN2CCCCC2)c2ccccc12)c1ccccc1 (stereo unspecified) | inactive: 2.12% | 
CNS(=O)(=O)c1ccc2ccccc2c1 | inactive: 12.8% | 
Cc1ccc(Cl)cc1NC(=S)N(CCN(C)C)C(C)c1ccccn1 (stereo unspecified) |  | active: 5.46 µM
CN(C)CCCNc1cc(C(C)(C)C)nc2c(-c3ccccc3)cnn12 | inactive: 10.4% | 
COC(=O)c1sccc1NC(=O)CC1C(=O)NCCN1C(=O)Nc1ccccc1 (stereo unspecified) | inactive: -8.31% | 
COc1cccc(/C=N/NC(=O)c2ccc3nc[nH]c3c2)c1 | inactive: -11.7% | 
NC(=O)c1c(NC(=O)Cn2nc(C(=O)O)c3ccccc3c2=O)sc2c1CCCC2 | inactive: 3.13% | 
CC(=O)N1N=C2c3ccccc3CCC2C1c1cccs1 (stereo unspecified) | inactive: -2% | 
CC(=O)c1cc(O)c2ccccc2c1O | inactive: -21.8% | 
NNC(=O)c1ccc(COc2cccc3ccccc23)o1 | inactive: -8.99% | 
O=C(O)c1ccccc1C1Nc2ccccc2C(=O)N1CCCN1CCOCC1 (stereo unspecified) | inactive: -13.6% | 
CCOC(=O)c1c(C)n(C)c2ccc(OC)c(NC(=O)CCN3CCC(Cc4ccccc4)CC3)c12 | inactive: -15.5% | 
CCOc1ccc(C2C3=C(CCCC3=O)OC(N)=C2[N+](=O)[O-])cc1 (stereo unspecified) | inactive: 0.702% | 
CC(C)NC(=O)NNC(=O)Cn1nnc(-c2cccc(Cl)c2Cl)n1 | inactive: 2.92% | 
CC1CC(OC(=O)CN2CCCCC2)CC(C)(C)C1 (stereo unspecified) | inactive: -3.89% | 

Compound | activity, negative = inhibition | Potency
COC(=O)c1cnc(Nc2cccc(C(F)(F)F)c2)c([N+](=O)[O-])c1 | inactive: -3.85% | 
CC(O)(c1ccccc1)C(c1ccccc1)C1CCCCN1 (stereo unspecified) | inactive: -1.46% | 
O=C(Oc1ccc(NC(=O)c2cc3c(cc2Br)OCO3)cc1)c1ccccc1 | inactive: -0.228% | 
O=C1CC(N2CCN(S(=O)(=O)c3ccccc3)CC2)C(=O)N1c1ccccc1 (stereo unspecified) | inactive: 7.99% | 
CCOC(=O)C1(C)C=C(Nc2cccc(OC)c2)C(=O)N1c1ccccc1 (stereo unspecified) | inactive: -13% | 
Cc1ccnn1CC(=O)N/N=C/c1cn[nH]c1-c1ccccc1 | inactive: 3.97% | 
Cc1cccc(CSc2nnc([C@@H]3CCCN3)o2)c1 | inactive: -7.5% | 
Cc1nnc(NC(=O)c2ccccc2NC(=O)c2ccccc2)s1 | inactive: -3.42% | 
O=C(O)CCC(=O)NCC(=O)c1ccc(F)cc1 | inactive: 7.94% | 
CCc1ccc(/C=N/N2CCN(c3ccccn3)CC2)cc1 | inactive: -12% | 
Nc1ccc(C(=O)C(=O)c2ccc(N)cc2)cc1 | inactive: 4.27% | 
O=C(NN1C(=O)/C(=C/c2cccs2)SC1=S)c1cccnc1 | inactive: -9.17% | 
O=C(O)c1cc2ccccc2cc1Nc1ccccc1 | inactive: -13.1% | 
Cc1cc(C)n(CC(=O)N/N=C/c2c[nH]c3ccccc23)n1 | inactive: 7.23% | 
O=C1CC(Sc2ccc(Cl)cc2)C(=O)N1c1ccc2c(c1)OCCO2 (stereo unspecified) | inactive: -12% | 
Nc1cc(=O)[nH]c(SCC(=O)Nc2cc(Cl)ccc2Cl)n1 | inactive: -10% | 
CC(C)(C)c1ccc(CCC2OCC(C[N+]3(C)CCOCC3)O2)cc1 (stereo unspecified) | inactive: -2.73% | 
CC(C)(NC(=O)c1cc(Cl)c2ccccc2c1O)C(=O)O | inactive: -1.91% | 
Cc1onc(-c2c(Cl)cccc2Cl)c1C(=O)N=C(N)N1CC(C)OC(C)C1 (stereo unspecified) | inactive: 1.53% | 
O=c1[nH]c(CSc2cccc[n+]2[O-])nc2ccccc12 | inactive: -0.257% | 
Oc1ccc2ccccc2c1C=Nc1ccccc1 | inactive: -2.72% | 
Nn1c(SCc2cccc(Br)c2)nnc1-c1cccnc1 | inactive: -0.468% | 
CCOC(=O)CN1NC2(CCCCCC2)NC1=S | inactive: -2.8% | 
